To fix the notation:
T1: RBFOX1 RRM (Homo sapiens, UniProt Q9NWB1 109-208)
T1 sequence: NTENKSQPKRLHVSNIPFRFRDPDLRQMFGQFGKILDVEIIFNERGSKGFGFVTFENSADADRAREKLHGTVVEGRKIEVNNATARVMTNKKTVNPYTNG

B1: UGUCUCU (DNA:RNA)
RNA: GGGAGACCGGAAUUCAGAUUGUCCUGUCUCUUUAAAUCCCGUCGUAGCCACCA
DNA 1: CAATCTGAATTCCGGTCTCCC
DNA 2: TGGTGGCTACGACGGGATT
B2: UCCUGUC (DNA:RNA)
RNA: B1 RNA with G26C, U27C, C28U, U29G, C30U, U31C
DNA 1: CAATCTGAATTCCGGTCTCCC
DNA 2: TGGTGGCTACGACGGGATT
B3: UGAGUGA (DNA:RNA)
RNA: B1 RNA with U27A, C28G, C30G, U31A
DNA 1: CAATCTGAATTCCGGTCTCCC
DNA 2: TGGTGGCTACGACGGGATT
B4: CACCCGG (DNA:RNA)
RNA: B1 RNA with U25C, G26A, U27C, U29C, C30G, U31G
DNA 1: CAATCTGAATTCCGGTCTCCC
DNA 2: TGGTGGCTACGACGGGATT
B5: UCAAGGU (DNA:RNA)
RNA: B1 RNA with G26C, U27A, C28A, U29G, C30G
DNA 1: CAATCTGAATTCCGGTCTCCC
DNA 2: TGGTGGCTACGACGGGATT
B6: ACCCUGG (DNA:RNA)
RNA: B1 RNA with U25A, G26C, U27C, C30G, U31G
DNA 1: CAATCTGAATTCCGGTCTCCC
DNA 2: TGGTGGCTACGACGGGATT
B7: CUAGACA (DNA:RNA)
RNA: B1 RNA with U25C, G26U, U27A, C28G, U29A, U31A
DNA 1: CAATCTGAATTCCGGTCTCCC
DNA 2: TGGTGGCTACGACGGGATT
B8: AAUCGCG (DNA:RNA)
RNA: B1 RNA with U25A, G26A, U29G, U31G
DNA 1: CAATCTGAATTCCGGTCTCCC
DNA 2: TGGTGGCTACGACGGGATT
B9: ACAUUUA (DNA:RNA)
RNA: B1 RNA with U25A, G26C, U27A, C28U, C30U, U31A
DNA 1: CAATCTGAATTCCGGTCTCCC
DNA 2: TGGTGGCTACGACGGGATT
B10: CGGAUAC (DNA:RNA)
RNA: B1 RNA with U25C, U27G, C28A, C30A, U31C
DNA 1: CAATCTGAATTCCGGTCTCCC
DNA 2: TGGTGGCTACGACGGGATT
B11: AUUGGGC (DNA:RNA)
RNA: B1 RNA with U25A, G26U, C28G, U29G, C30G, U31C
DNA 1: CAATCTGAATTCCGGTCTCCC
DNA 2: TGGTGGCTACGACGGGATT
B12: UUGGUAU (DNA:RNA)
RNA: B1 RNA with G26U, U27G, C28G, C30A
DNA 1: CAATCTGAATTCCGGTCTCCC
DNA 2: TGGTGGCTACGACGGGATT
B13: AAGCAGG (DNA:RNA)
RNA: B1 RNA with U25A, G26A, U27G, U29A, C30G, U31G
DNA 1: CAATCTGAATTCCGGTCTCCC
DNA 2: TGGTGGCTACGACGGGATT
B14: CAAGUAG (DNA:RNA)
RNA: B1 RNA with U25C, G26A, U27A, C28G, C30A, U31G
DNA 1: CAATCTGAATTCCGGTCTCCC
DNA 2: TGGTGGCTACGACGGGATT
B15: CCGUAGC (DNA:RNA)
RNA: GGGAGACCGGAAUUCAGAUUGUCCCCGUAGCUUAAAUCCCGUCGUAGCCACCA
DNA 1: CAATCTGAATTCCGGTCTCCC
DNA 2: TGGTGGCTACGACGGGATT
B16: GACCGCG (DNA:RNA)
RNA: B1 RNA with U25G, G26A, U27C, U29G, U31G
DNA 1: CAATCTGAATTCCGGTCTCCC
DNA 2: TGGTGGCTACGACGGGATT
B17: UUGUUUC (DNA:RNA)
RNA: B15 RNA with C25U, C26U, A29U, G30U
DNA 1: CAATCTGAATTCCGGTCTCCC
DNA 2: TGGTGGCTACGACGGGATT
B18: UACGGAG (DNA:RNA)
RNA: B1 RNA with G26A, U27C, C28G, U29G, C30A, U31G
DNA 1: CAATCTGAATTCCGGTCTCCC
DNA 2: TGGTGGCTACGACGGGATT
B19: UGGCUGG (DNA:RNA)
RNA: B1 RNA with U27G, C30G, U31G
DNA 1: CAATCTGAATTCCGGTCTCCC
DNA 2: TGGTGGCTACGACGGGATT
B20: GAUGGCA (DNA:RNA)
RNA: B1 RNA with U25G, G26A, C28G, U29G, U31A
DNA 1: CAATCTGAATTCCGGTCTCCC
DNA 2: TGGTGGCTACGACGGGATT
B21: AUGGCGA (DNA:RNA)
RNA: B15 RNA with C25A, C26U, U28G, A29C, C31A
DNA 1: CAATCTGAATTCCGGTCTCCC
DNA 2: TGGTGGCTACGACGGGATT
B22: GUAAGAU (DNA:RNA)
RNA: B1 RNA with U25G, G26U, U27A, C28A, U29G, C30A
DNA 1: CAATCTGAATTCCGGTCTCCC
DNA 2: TGGTGGCTACGACGGGATT
B23: GGAUGCC (DNA:RNA)
RNA: B15 RNA with C25G, C26G, G27A, A29G, G30C
DNA 1: CAATCTGAATTCCGGTCTCCC
DNA 2: TGGTGGCTACGACGGGATT
B24: UCGGUGU (DNA:RNA)
RNA: B15 RNA with C25U, U28G, A29U, C31U
DNA 1: CAATCTGAATTCCGGTCTCCC
DNA 2: TGGTGGCTACGACGGGATT
B25: UGGAUCU (DNA:RNA)
RNA: B1 RNA with U27G, C28A
DNA 1: CAATCTGAATTCCGGTCTCCC
DNA 2: TGGTGGCTACGACGGGATT
B26: UCCACCA (DNA:RNA)
RNA: B1 RNA with G26C, U27C, C28A, U29C, U31A
DNA 1: CAATCTGAATTCCGGTCTCCC
DNA 2: TGGTGGCTACGACGGGATT
B27: UGUACCC (DNA:RNA)
RNA: B1 RNA with C28A, U29C, U31C
DNA 1: CAATCTGAATTCCGGTCTCCC
DNA 2: TGGTGGCTACGACGGGATT
B28: UGAGACG (DNA:RNA)
RNA: B1 RNA with U27A, C28G, U29A, U31G
DNA 1: CAATCTGAATTCCGGTCTCCC
DNA 2: TGGTGGCTACGACGGGATT
B29: UUCGAUA (DNA:RNA)
RNA: B15 RNA with C25U, C26U, G27C, U28G, G30U, C31A
DNA 1: CAATCTGAATTCCGGTCTCCC
DNA 2: TGGTGGCTACGACGGGATT
B30: UUGUAAG (DNA:RNA)
RNA: B15 RNA with C25U, C26U, G30A, C31G
DNA 1: CAATCTGAATTCCGGTCTCCC
DNA 2: TGGTGGCTACGACGGGATT
B31: AGUUAAU (DNA:RNA)
RNA: B1 RNA with U25A, C28U, U29A, C30A
DNA 1: CAATCTGAATTCCGGTCTCCC
DNA 2: TGGTGGCTACGACGGGATT

The source of these data is publication PMC9911399, “Two distinct binding modes provide the RNA-binding protein RbFox with extraordinary sequence specificity”.

Where a chain is given by its changes, count along the chain named. Some of the results follow.

This assay has as its target T1, RBFOX1 RRM. Nature of the assay: EMSA; HiTS-Eq, 1 nM pool, 10 min; buffer printed only for the single-RNA assays: 10 mM Tris pH 7.5, 150 mM NaCl, 3.4 mM EDTA, 0.001% NP-40, 30 C. The conditions noted are these: tags: His6 N-terminal (pET28a); label: 5' 32P. A digest of the protocol: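 Purified RbFox RRM (wild type or mutant) was equilibrated for 10 min in 50 µL with 1 nM of a 5′-radiolabelled pool of RNA with 7 randomized nucleotides, its flanks annealed to DNA oligonucleotides, across increasing protein concentrations. Free RNA was separated by 8% native PAGE, excised, reverse-transcribed, PCR-barcoded and sequenced on an Illumina HiSeq 2500. Relative association constants came from read-count changes of each variant against the control reaction, normalised to the cognate motif.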
B1: the binding signal is 0.00998 KA relative to UGCAUGU.
The result for B2 reads 0.0169 KA relative to UGCAUGU; that for B3, 0.0154 KA relative to UGCAUGU.
The result for B4 reads 0.00343 KA relative to UGCAUGU.
The result for B5 reads 0.0126 KA relative to UGCAUGU.
Turning to B6, the binding signal was 0.00765 KA relative to UGCAUGU.
The result for B7 reads 0.00428 KA relative to UGCAUGU; that for B8, 0.00509 KA relative to UGCAUGU.
The result for B9 reads 0.000401 KA relative to UGCAUGU.
The result for B10 reads 0.0143 KA relative to UGCAUGU; that for B11, 0.00837 KA relative to UGCAUGU.
For B12, the binding signal was 0.0146 KA relative to UGCAUGU.
The result for B13 reads 0.0101 KA relative to UGCAUGU; that for B14, 0.00571 KA relative to UGCAUGU; that for B15, 0.00665 KA relative to UGCAUGU.
The result for B16 reads 0.0112 KA relative to UGCAUGU; that for B17, 0.021 KA relative to UGCAUGU.
The result for B18 reads 0.00489 KA relative to UGCAUGU; that for B19, 0.0415 KA relative to UGCAUGU.
Turning to B20, the binding signal is 0.0234 KA relative to UGCAUGU.
The result for B21 reads 0.0144 KA relative to UGCAUGU.
The result for B22 reads 0.0111 KA relative to UGCAUGU; that for B23, 0.0339 KA relative to UGCAUGU; that for B24, 0.0232 KA relative to UGCAUGU.
The result for B25 reads 0.0236 KA relative to UGCAUGU; that for B26, 0.00192 KA relative to UGCAUGU.
Regarding B27, the binding signal is 0.00639 KA relative to UGCAUGU.
The result for B28 reads 0.0138 KA relative to UGCAUGU.
As for B29, the binding signal is 0.0123 KA relative to UGCAUGU.
In the case of B30, the binding signal was 0.0175 KA relative to UGCAUGU.
In the case of B31, the binding signal was 0.00205 KA relative to UGCAUGU.
